# Measured values: the supplement of paper PMC4166925
# ± gives the standard deviation of the averaged measurements. In all, about 33,000 sequences were measured (“E-score (dimensionless, -0.5 to 0.5)”: median about -0.046, highest 2% from about 0.36 on). The list shows a part of the results.
# Tested on: T1, SpTbr T-box DNA-binding domain (GST fusion)
# T1 sequence: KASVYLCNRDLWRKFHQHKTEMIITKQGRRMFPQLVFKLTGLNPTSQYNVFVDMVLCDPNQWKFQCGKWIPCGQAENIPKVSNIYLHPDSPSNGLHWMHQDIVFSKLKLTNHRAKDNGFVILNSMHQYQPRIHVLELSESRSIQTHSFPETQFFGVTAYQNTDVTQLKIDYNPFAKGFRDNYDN
# Experiment: PBM E-score of 8-mer (E-score (dimensionless, -0.5 to 0.5)); Tbr is Tbrain of the sea star Patiria miniata (Pm) or the sea urchin Strongylocentrotus purpuratus (Sp); higher = stronger binding preference; most listed sequences are background and not binding sites
# Conditions: the construct has about 5 more residues each side
# Outline: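 Using the Universal PBM Analysis Suite, every ungapped 8-mer received an enrichment E-score averaged over duplicate arrays. Probe intensities came from double-stranded Universal Agilent oligonucleotide arrays incubated with 200 nM GST-fused Tbr T-box DNA-binding domain in PBS (pH 7.5). That protein was expressed in BL21 E. coli at 20 °C and purified by glutathione affinity chromatography.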
row,Sequence,PBM E-score of 8-mer
1,GCCATATA,-0.0999 ± 0.011
2,CCAATTCA,-0.0209 ± 0.061
3,CTTAAGTA,-0.146 ± 0.032
4,GGTAAATA,-0.129 ± 0.013
5,ACGGAGGG,-0.179 ± 0.052
6,CCTGTACA,-0.104 ± 0.0043
7,AGTTACCA,-0.00685 ± 0.018
8,AGCATGGC,-0.217 ± 0.0064
9,CATGTGCA,0.14 ± 0.028
10,GTGGTGAA,0.114 ± 0.028
11,TGCAACCA,-0.0618 ± 0.0096
12,CCTGGACA,-0.01 ± 0.077
13,CCTAGTAC,-0.0868 ± 0.029
14,CTGCACCA,-0.121 ± 0.11
15,CCAGGCAA,-0.179 ± 0.11
16,CTTTTGTA,-0.233 ± 0.088
17,AGCGAGAC,0.115 ± 0.0084
18,CTCATGCC,-0.069 ± 0.02
19,ACGACGGG,0.0408 ± 0.031
20,CAGTAACC,0.048 ± 0.029
21,GGTTATCA,0.0778 ± 0.034
22,AACTTTGT,0.152 ± 0.041
23,CTTCTGGC,-0.0984 ± 0.022
24,ATTCCCCA,0.0621 ± 0.03
25,CACGGGCA,-0.117 ± 0.0051

row,Sequence,PBM E-score of 8-mer
1,ATCACTTC,0.226 ± 0.033
2,AGACCCTC,-0.0134 ± 0.048
3,CCCTTAAC,-0.0411 ± 0.058
4,CGTGGAAG,0.0205 ± 0.034
5,CGCCTTAA,0.156 ± 0.016
6,GGGGGACA,-0.123 ± 0.068
7,CATTCACG,0.238 ± 0.024
8,GGTGTGGA,0.456 ± 0.014
9,GGACCTAA,-0.0149 ± 0.034
10,CGCCGTGA,0.172 ± 0.013
11,CACGGGGC,-0.0714 ± 0.031
12,AGAGGTCA,-0.136 ± 0.032
13,ATATAATA,-0.263 ± 0.031
14,GGGTAACA,0.246 ± 0.05
15,CACGCGTC,0.274 ± 0.013
16,CGCCATGC,0.0353 ± 0.036
17,CAGAATGA,-0.255 ± 0.026
18,GAAATGAA,0.162 ± 0.072
19,AACCATTG,-0.0476 ± 0.065
20,ATCCTTGC,-0.117 ± 0.011
21,CCAAAGCA,-0.145 ± 0.076
22,AATTACCC,-0.123 ± 0.0094
23,CCAGAACC,-0.245 ± 0.028
24,CCCTAGCA,-0.123 ± 0.094
25,GCTCTGCC,-0.0292 ± 0.13

row,Sequence,PBM E-score of 8-mer
1,CGACGAAG,0.143 ± 0.04
2,CTATAGAC,-0.192 ± 0.046
3,GTGTAGAA,0.174 ± 0.014
4,AGCTTGGG,-0.161 ± 0.031
5,GGTTTGCA,0.154 ± 0.017
6,ACTACCTA,-0.133 ± 0.079
7,CATTGAGA,0.16 ± 0.011
8,GGATTCCC,-0.22 ± 0.0035
9,GGGTTAAC,-0.00766 ± 0.087
10,AGCAAACA,0.0728 ± 0.028
11,CAGCGTCA,0.0369 ± 0.11
12,CCAGGTCA,-0.0658 ± 0.051
13,TGGCTCAA,0.0278 ± 0.017
14,AATCTGAT,-0.25 ± 0.015
15,CCTCTTAC,0.04709 ± 0.00011
16,CGTTCAAA,-0.0474 ± 0.14
17,CATTGCGA,0.0015 ± 0.016
18,AGTTCCTG,0.00651 ± 0.031
19,ACCAGTTA,-0.142 ± 0.021
20,CGCTGTCA,0.157 ± 0.058
21,AATCCTCG,0.0312 ± 0.0083
22,AGTGTCTC,0.106 ± 0.089
23,CCGTTTAA,-0.187 ± 0.042
24,GATGTTGC,-0.0546 ± 0.085
25,ACAGACTC,-0.179 ± 0.059

row,Sequence,PBM E-score of 8-mer
1,GCTGCCAA,0.0847 ± 0.029
2,CACCCACG,0.213 ± 0.018
3,ATATGGCA,-4e-05 ± 0.019
4,CACACAGG,0.244 ± 0.0081
5,GTGTGTGA,0.4221 ± 0.003
6,GAATGGTA,-0.0525 ± 0.073
7,ATGGCAAC,0.0697 ± 0.05
8,AAATCGTA,0.0245 ± 0.021
9,GTTCTTCA,-0.0554 ± 0.0092
10,CACTGCAC,0.128 ± 0.0054
11,AGTTCTTG,-0.0811 ± 0.038
12,CGGAATAA,-0.103 ± 0.1
13,ATGGTAAA,-0.214 ± 0.021
14,AAGATCGT,-0.094 ± 0.097
15,CTTTTTAC,-0.0935 ± 0.039
16,CAGGGTCG,0.205 ± 0.023
17,CTCTTTTA,0.02 ± 0.0092
18,AAAGATCC,-0.0364 ± 0.046
19,AGGTTCCG,-0.246 ± 0.069
20,TGCACAAA,0.00354 ± 0.028
21,AGCCATAC,-0.212 ± 0.021
22,CCCGGATC,-0.116 ± 0.029
23,AAGGGGGG,-0.358 ± 0.083
24,ACTAGGGC,-0.202 ± 0.049
25,CGCCGCCG,0.112 ± 0.0035

row,Sequence,PBM E-score of 8-mer
1,ATCCAAAG,-0.16 ± 0.022
2,CACAGCGC,0.0949 ± 0.014
3,GTCCTAAC,-0.1805 ± 0.0011
4,CAATCGTA,-0.0908 ± 0.035
5,CGGTCTAG,-0.3115 ± 0.0011
6,GGAGGGCA,-0.0498 ± 0.049
7,AAAATACG,-0.0435 ± 0.035
8,CAATTTCA,-0.0118 ± 0.036
9,ATGGATGC,-0.211 ± 0.072
10,CAGTACTG,-0.223 ± 0.099
11,ATTAACCG,-0.163 ± 0.02
12,GACTCTAC,-0.189 ± 0.014
13,TACTGGAA,-0.236 ± 0.024
14,AAGTTAGG,-0.254 ± 0.055
15,AGTGTCAG,0.371 ± 0.0097
16,ACTCCATC,-0.0968 ± 0.0097
17,ACTCGTCA,0.249 ± 0.025
18,CTTAGGGA,-0.338 ± 0.028
19,ACGTGCAT,0.0826 ± 0.028
20,CTAGCACA,0.271 ± 0.018
21,TTCGACAA,0.0463 ± 0.082
22,ACTTCCCC,-0.104 ± 0.046
23,CCCCAACG,0.235 ± 0.014
24,CGAGTAAC,0.0591 ± 0.04
25,GGACCCTA,-0.235 ± 0.075

row,Sequence,PBM E-score of 8-mer
1,GCTGCGGA,-0.123 ± 0.0085
2,GTGTATCA,-0.0227 ± 0.0043
3,CAGCACAC,0.159 ± 0.0043
4,ACAACAAG,0.112 ± 0.015
5,AGGTCTAA,-0.122 ± 0.0082
6,ACATGCCC,-0.124 ± 0.0073
7,CCCGTAGA,-0.323 ± 0.091
8,ACCACGGT,0.0372 ± 0.09
9,ACAATCGC,0.0999 ± 0.0069
10,CAAGTCCG,-0.0668 ± 0.092
11,AAATATGT,0.0248 ± 0.035
12,AAAATACT,-0.01 ± 0.08
13,ATATTCAG,-0.1613 ± 0.0011
14,CCCACCAG,-0.0304 ± 0.046
15,ATGAGTCA,-0.0158 ± 0.021
16,GTCAGCGA,0.0669 ± 0.036
17,AATCAGGG,-0.159 ± 0.025
18,ACGGGACG,-0.0732 ± 0.09
19,ATGAATTG,0.0344 ± 0.13
20,GCACCCCA,0.226 ± 0.037
21,TGTGAACA,0.445 ± 0.0018
22,GTGTTGGA,0.367 ± 0.0068
23,CACCTTAA,0.387 ± 0.004
24,CGGGTCAA,-0.0961 ± 0.032
25,CATCGTAC,-0.157 ± 0.036

row,Sequence,PBM E-score of 8-mer
1,GTCGACAC,0.394 ± 0.018
2,TACGTAAA,-0.04 ± 0.0023
3,AATTATGG,-0.133 ± 0.015
4,TGGTCAAA,-0.139 ± 0.037
5,CCAGCCCC,-0.208 ± 0.028
6,CCGTTAGG,0.0143 ± 0.029
7,AGGCCAAT,-0.14 ± 0.032
8,AGCTAACA,0.233 ± 0.022
9,CAATAGAC,-0.0363 ± 0.07
10,ATCCCTAC,-0.102 ± 0.046
11,GAGAGGGA,-0.132 ± 0.07
12,ACATCCCA,0.113 ± 0.041
13,AACTAAGG,-0.137 ± 0.037
14,CGACCCTC,0.000745 ± 0.071
15,GGCTTTGA,-0.208 ± 0.027
16,AAGGCGTG,0.392 ± 0.037
17,GACGCCCA,-0.0155 ± 0.091
18,AGGCGAAC,0.0165 ± 0.08
19,GAGAAGCA,-0.241 ± 0.075
20,CTAATAAA,-0.155 ± 0.028
21,CGCGACGA,0.229 ± 0.034
22,CAAGCTAG,-0.157 ± 0.011
